Laboratory results from US9867372B2, “Tetrazolinone compound and use of same” (SUMITOMO CHEMICAL COMPANY, LIMITED, priority 2013, dated 2018).

System: German cockroach (Blattella germanica)
Test: whole plant or invertebrate
Conditions: 144 h
Method: On each of polyethylene cups having a diameter of 5.5 cm, a filter paper having the same size was laid. The above test chemical solution (0.7 ml) was dropped on the filter paper and 30 mg of sucrose was placed as bait. Two (2) heads of male adult German cockroach (Blattella germanica) were released in the polyethylene cup and the cup was covered with the lid. After 6 days, the life or death of German cockroach was investigated and mortality was determined by the following equation. Mortality (%)=(number of dead insects/number of test insects)×100

SMILES | mortality at 500 ppm [%]
COc1ccc(-c2cccc(OCc3c(Cl)cccc3-n3nnn(C)c3=O)n2)cc1 [compound 67] | 100

System: cabbage moth (Plutella xylostella)
Test: whole plant or invertebrate
Conditions: 120 h
Method: Cabbage (cultivar: GREEN BALL) was planted in each of polyethylene cups and grown until the third true leaf or the fourth true leaf was developed. The above test chemical solution was sprayed over the cabbage at a rate of 20 mL/cup. After drying the chemical solution, the polyethylene cup having a diameter of 5.5 cm covered with a filter paper laid on the bottom, the cabbage cut out from the root was placed and 5 heads of third instar larvae of cabbage moth (Plutella xylostella) were released in the cup and the cup was covered with the lid. The cup was held at 25° C. and, after 5 days, the number of the surviving insects was counted and the mortality of insects was calculated by the following equation. Mortality (%)=(number of dead insects/number of test insects)×100

SMILES | mortality at 500 ppm [%]
Cc1cccc(-n2nnn(C)c2=O)c1COc1cc(-c2ccccc2)ncn1 [compound 25] | ≥ 80
COc1ccc(-c2cc(OCc3c(C)cccc3-n3nnn(C)c3=O)ccc2C)cc1 [compound 120] | ≥ 80
COc1ccccc1-c1cccc(OCc2c(C)cccc2-n2nnn(C)c2=O)c1 [compound 52] | ≥ 80

System: common house mosquito (Culex pipiens pallens)
Test: whole plant or invertebrate
Conditions: 24 h
Method: (§1) The above test chemical solution (0.7 mL) was added to 100 mL of deionized water to adjust an active ingredient concentration to 3.5 ppm. Twenty (20) heads of last instar larvae of common house mosquito (Culex pipiens pallens) were released in the solution and the number of dead insects was counted after 8 days.
Mortality was determined by the following equation. Mortality (%)=(number of dead insects/number of test insects)×100
as §1, with “and, after one day,” for “and”, “counted.” for “counted after 8 days.”

SMILES | mortality at 3.5 ppm [%]
COc1ccccc1-c1cccc(OCc2c(C)cccc2-n2nnn(C)c2=O)n1 [compound 19] | 100
Cc1cccc(-n2nnn(C)c2=O)c1COc1cccc(-c2ccncc2)n1 [compound 20] | 100
COc1ccc(-c2ccnc(OCc3c(C)cccc3-n3nnn(C)c3=O)c2)cc1 [compound 29] | 100
Cc1cccc(-n2nnn(C)c2=O)c1COc1cc(-c2ccc(C#N)cc2)ncn1 [compound 28] | 100
COc1ccccc1-c1cccc(OCc2c(C)cccc2-n2nnn(C)c2=O)c1 [compound 52] | 100

Same assay, conditions: 192 h

SMILES | mortality at 3.5 ppm [%]
Cc1cccc(-n2nnn(C)c2=O)c1COc1cccc(-c2ccc(OC(C)C)cc2)n1 [compound 73] | 100
Cc1cccc(-n2nnn(C)c2=O)c1COc1cccc(-c2ccc3c(c2)OCO3)c1 [compound 60] | 100
Cn1nnn(-c2cccc(C3CC3)c2COc2cccc(-c3ccc(F)cc3)n2)c1=O [compound 66] | 100
Cc1cccc(-n2nnn(C)c2=O)c1COc1cccc(-c2ccc(Br)cc2)n1 [compound 23] | 100
